Measured values: PubChem BioAssay AID504339 (National Center for Advancing Translational Sciences (NCATS), 2011)
“And” between values parts separate entries of the source, which are not always exact repeats. Equal entries are not always repeated. Among all 390,000 compounds or so, about 17,000 (4.4%) were called active. Inconclusive means that the source gave no clear call. Such entries were picked first, then a sample of the others. Calls follow the shape of the dose curve; as a rule, active = well fitted inhibition curve with a large enough effect; inconclusive = small, poorly fitted or top-dose-only effect; inactive = no such curve, though single readings can be large or run the other way. Where the call is inconclusive, the potency comes from a doubtful curve fit.

target: Lysine-specific demethylase 4A (Homo sapiens) (UniProt O75164); assay: qHTS Assay for Inhibitors of JMJD2A-Tudor Domain; conditions: AlphaScreen JMJD2A-Tudor / H3K4me3 peptide binding; series mostly up to 114 µM; also: nearly all actives have a fitted effect of over 50% in size
Potency is read from the fitted curve at half-maximal effect; tags tell the direction and shape of the fitted curve.

Sequence of UniProt O75164 (O75164 whole entry, looked up, the tested form may be a part): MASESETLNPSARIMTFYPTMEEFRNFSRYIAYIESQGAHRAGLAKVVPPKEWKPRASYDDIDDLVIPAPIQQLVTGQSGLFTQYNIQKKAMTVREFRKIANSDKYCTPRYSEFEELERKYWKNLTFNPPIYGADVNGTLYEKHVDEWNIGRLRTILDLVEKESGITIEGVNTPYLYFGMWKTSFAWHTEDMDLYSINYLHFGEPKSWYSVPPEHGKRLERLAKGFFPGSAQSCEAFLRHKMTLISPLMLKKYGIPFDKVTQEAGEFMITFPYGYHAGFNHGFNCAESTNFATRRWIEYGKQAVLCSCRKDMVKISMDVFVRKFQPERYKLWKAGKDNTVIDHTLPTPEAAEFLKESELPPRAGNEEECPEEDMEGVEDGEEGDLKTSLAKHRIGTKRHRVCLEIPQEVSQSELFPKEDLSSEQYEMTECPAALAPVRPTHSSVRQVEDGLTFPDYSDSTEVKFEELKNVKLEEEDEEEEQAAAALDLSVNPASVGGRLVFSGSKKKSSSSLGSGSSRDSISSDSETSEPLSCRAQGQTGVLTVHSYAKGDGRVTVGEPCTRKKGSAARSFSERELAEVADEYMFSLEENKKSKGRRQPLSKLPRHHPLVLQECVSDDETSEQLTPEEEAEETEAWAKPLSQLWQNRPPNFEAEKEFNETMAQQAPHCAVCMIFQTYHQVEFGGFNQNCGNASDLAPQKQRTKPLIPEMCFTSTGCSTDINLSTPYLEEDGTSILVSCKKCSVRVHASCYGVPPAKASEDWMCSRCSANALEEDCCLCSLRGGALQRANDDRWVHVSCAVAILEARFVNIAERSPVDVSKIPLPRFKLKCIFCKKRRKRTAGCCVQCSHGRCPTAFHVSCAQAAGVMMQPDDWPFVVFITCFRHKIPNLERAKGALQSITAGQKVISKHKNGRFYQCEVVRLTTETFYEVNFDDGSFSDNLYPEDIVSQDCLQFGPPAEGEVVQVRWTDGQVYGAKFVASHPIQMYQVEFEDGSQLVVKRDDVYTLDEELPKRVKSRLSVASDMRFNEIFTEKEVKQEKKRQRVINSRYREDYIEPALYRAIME

Row | Structure (SMILES) | Potency
1 | Cc1nc(Nc2ccc(Cl)c(Cl)c2)sc1C(=O)Nc1ccccc1 | active: 22.4 µM
2 | CC(C)Oc1ccc(-c2cc(C(=O)NCCN3CCOCC3)c3ccccc3n2)cc1 | inactive
3 | COc1ccc(Cn2nnnc2C(c2ccccn2)N2CCN(c3ccc(O)cc3)CC2)cc1 (stereo not drawn) | active: 31.6 µM
4 | O=C(NNS(=O)(=O)c1ccccc1)c1ccc(F)cc1 | inconclusive: 28.2 µM [inhibitor, single point]
5 | O=C(COc1ccc(Cl)cc1Br)N1CCN(c2ncccn2)CC1 | inactive
6 | Cc1ccccc1NC(=O)CSc1nc(-c2ccc(F)cc2)nc2c1Cc1ccccc1O2 | inactive
7 | Cc1ccc(NC(=S)N(CCCN2CCCC(C)C2)Cc2ccco2)cc1C (stereo not drawn) | inconclusive: 50.1 µM [inhibitor, partial curve]
8 | O=C1CCCN1CCCNS(=O)(=O)c1cccs1 | inactive
9 | OC(COc1ccc2c(c1)OCO2)CN1CCc2ccccc2C1 (stereo not drawn) | inactive
10 | O=C(Cc1nc2ccccc2[nH]1)c1cccc([N+](=O)[O-])c1 | inconclusive: 50.1 µM [inhibitor, partial curve]
11 | COc1ccccc1NC(=S)NN=C(C)c1ccccn1 | inconclusive: 12.6 µM [inhibitor, full curve]
12 | CCc1ccc2ncc(S(=O)(=O)c3ccc(Cl)cc3)c(N3CCN(CC)CC3)c2c1 | inconclusive: 70.8 µM [inhibitor, single point]
13 | Cc1ccc(C(=O)N[C@@H](C)CN2C3=NC[C@H](C(C)C)N3C[C@H]2Cc2ccc(O)cc2)cc1Br | active: 79.4 µM
14 | CCC(C)n1c(-c2cccc(S(=O)(=O)N(CC)CC)c2)n[nH]c1=S (stereo not drawn) | active: 10 µM
15 | Cc1cccc(OCCn2nnc3ccccc32)c1C | inactive
16 | CC(C)C[C@H](NC(=O)c1nc[nH]c1C(=O)N1CCc2ccccc2C1)C(=O)OC(C)(C)C | inactive
17 | CCOC(=O)c1cnc2c(OC)cccc2c1N1CCN(c2ccccc2OC)CC1 | inconclusive: 79.4 µM [inhibitor, partial curve]
18 | CC(Nc1nc(-c2ccc(Cl)cc2)cs1)c1nc2cc(Cl)c(N3CCCCC3)cc2n1CCOCCO (stereo not drawn) | inconclusive: 39.8 µM [inhibitor, partial curve]
19 | COC(=O)c1sc(S(=O)(=O)N2CCC(C(=O)O)CC2)c(C(=O)OC)c1C | inconclusive: 89.1 µM [inhibitor, partial curve]
20 | CCOC(=O)c1[nH]cnc1C(=O)O | active: 2 µM
21 | O=C(O)c1cccc2c1-c1ccccc1/C2=N\Nc1ccccc1 | inconclusive: 39.8 µM [inhibitor, partial curve]
22 | CSCC[C@H](NC(=O)COc1cc2c(c3oc(=O)c(C)c(C)c13)CCC(C)(C)O2)C(=O)O | inconclusive: 15.8 µM [inhibitor, full curve]
23 | O=C(/C=C/c1ccccc1)C1=C(O)C(=O)N(CCO)C1c1ccc2c(c1)OCO2 (stereo not drawn) | inconclusive: 56.2 µM [inhibitor, partial curve]
24 | NC(=O)NS(=O)(=O)Oc1ccccc1 | active: 89.1 µM
25 | CCCNC(=O)Cn1cnc2sc(C(=O)NCCCN3CCOCC3)c(C)c2c1=O | inactive

Row | Structure (SMILES) | Potency
26 | O=C(O)CNCC1COc2ccccc2O1 (stereo not drawn) | active: 3.98 µM
27 | CC(CC(=O)Nc1ccc(Cl)c([N+](=O)[O-])c1)c1ccccc1 (stereo not drawn) | inconclusive: 79.4 µM [inhibitor, partial curve]
28 | O=C(NC(=S)Nc1ccccc1N1CCCCC1)c1cccs1 | inconclusive: 44.7 µM [inhibitor, partial curve]
29 | COc1ccc(OC)c(C2C3=C(N=C4SCC(=O)N42)c2ccccc2CC3)c1 (stereo not drawn) | inconclusive: 56.2 µM [inhibitor, partial curve]
30 | Clc1cccc(OCCCN2CCCC2)c1Cl | active: 20 µM
31 | NC(N)=NNC(=O)c1ccccc1Cl | inconclusive: 0.708 µM [inhibitor, full curve]
32 | O=C1CCOc2cc(OCc3ccccc3)ccc21 | inactive
33 | COc1ccc(OC)c(C(=O)NC(CC(N)=O)c2ccc(N3CCN(c4ccc(F)cc4)CC3)c([N+](=O)[O-])c2)c1 (stereo not drawn) | inconclusive: 44.7 µM [inhibitor, full curve]
34 | CCOc1ccc(-c2nnc(SCC(=O)NCCc3ccc(OC)c(OC)c3)nc2-c2ccc(OCC)cc2)cc1 | inconclusive: 56.2 µM [inhibitor, partial curve]
35 | COc1ccc(/C=C2\C(=O)NC(=S)N2C(=O)c2ccc(F)cc2)cc1 | inconclusive: 39.8 µM [inhibitor, full curve]
36 | CCC(C(=O)NCc1ccc(F)cc1)n1nc(C)n2c(cc3occc32)c1=O (stereo not drawn) | inactive
37 | CCOc1ccc(NC(=O)c2c(NC(=O)CN3CCCC3)sc3c2CCC3)cc1 | inactive
38 | CCOc1ccccc1OCCOCCN1CCN(Cc2ccccc2)CC1 | active: 0.794 µM
39 | Cc1cccc(N2CCN(S(=O)(=O)c3cccc4nonc34)CC2)c1C | inconclusive: 17.8 µM [inhibitor, full curve]
40 | Cc1ccc(CN2CCSc3ccc(C(=O)NCc4cccnc4)cc32)cc1 | active: 39.8 µM
41 | O=C(c1ccccc1)c1ccc(O)c(O)c1O | active: 25.1 µM
42 | N#Cc1c(-c2ccc3c(c2)OCO3)csc1N | inconclusive: 28.2 µM [inhibitor, partial curve]
43 | CC(=O)Nc1ccc(S(=O)(=O)Nc2cccc(-n3c(C)nc4ccccc4c3=O)c2)cc1 | inactive
44 | CCOC(=O)c1c(NC(=O)COc2cc(C)ccc2C(C)C)sc(C)c1C | inconclusive: 79.4 µM [inhibitor, single point]
45 | COc1ccc(CCCN2CCC(CN3C(=S)NC[C@@H]3Cc3ccccc3)CC2)cc1OC | inconclusive: 50.1 µM [inhibitor, partial curve]
46 | CC(OC(=O)c1ccc2c(c1)S(=O)(=O)c1ccccc1C2=O)C(N)=O (stereo not drawn) | inactive
47 | COc1cccc(C(=O)NC(=S)Nc2ccccc2N2CCOCC2)c1 | inconclusive: 31.6 µM [inhibitor, partial curve]
48 | O=C(CCN1C(=O)/C(=C/c2cccs2)SC1=S)Nc1cccc(O)c1 | inconclusive: 89.1 µM [inhibitor, partial curve]
49 | Cc1cc(C2CCCCC2)n(O)c(=O)c1 | inconclusive: 79.4 µM [inhibitor, single point]
50 | C#CCOCCOCCOCCNc1nc(N2CCN(C(=O)[C@H]([C@@H](C)CC)n3cc(CCCCN)nn3)CC2)nc(N2CCN(C(=O)[C@H](CCCCN)n3cc(CCC(=O)O)nn3)CC2)n1 | inactive

Row | Structure (SMILES) | Potency
51 | COc1ccc(CN2CCCN(S(=O)(=O)c3ccc(Br)cc3)CC2)cc1 | inconclusive: 14.1 µM [inhibitor, full curve]
52 | Cc1ccc(C(=O)NCCCc2ccccc2)c(Cl)c1 | inactive
53 | O=C(Nc1ccc(N2CCN(C(=O)c3ccccc3)CC2)cc1)c1ccc([N+](=O)[O-])o1 | inconclusive: 11.2 µM [inhibitor, partial curve]
54 | Cc1cccc(S(=O)(=O)Nc2nc3ccccc3nc2NCc2ccc3c(c2)OCO3)c1 | inactive
55 | O=C(CCc1nc2sc3c(c2c(=O)[nH]1)CCCC3)Nc1ccccc1Cl | inconclusive: 15.8 µM [inhibitor, full curve, poor fit]
56 | CCC(C)N1CC(=O)N2C(c3ccc(OC)cc3OC)c3[nH]c4ccccc4c3C[C@H]2C1=O (stereo partly drawn) | inconclusive: 63.1 µM [inhibitor, partial curve, poor fit]
57 | Cc1ccc(CN2C(=O)N/C(=C\c3cccn3-c3cccc(C(=O)O)c3)C2=O)cc1 | active: 44.7 µM
58 | CCCN(CCC)CCCNC(=O)C1CCN(S(=O)(=O)CC)CC1 | inactive
59 | O=C(Cn1c(=S)[nH]c2ccccc21)c1ccccc1 | inconclusive: 31.6 µM [inhibitor, single point]
60 | CC(=O)C[C@H](O)CC(=O)[C@H]1OC(=O)CCCCCCc2ccccc21 | inactive
61 | c1coc(CNc2nc(-c3ccncc3)cs2)c1 | inconclusive: 35.5 µM [inhibitor, partial curve]
62 | COc1ccc(C)cc1NC(=O)c1c(C)oc2ncn(CC(C)C)c(=O)c12 | inactive
63 | Cc1csc(/C(=N\O)c2csc(C)n2)n1 | inconclusive: 63.1 µM [inhibitor, partial curve]
64 | CCOC(=O)c1ccc(N2C(=O)c3n[nH]c(-c4ccco4)c3C2c2ccc(O)cc2)cc1 (stereo not drawn) | inconclusive: 25.1 µM [inhibitor, full curve]
65 | CCN1C(=O)/C(=C2\SC(N3CCCCC3)=NC2=O)c2ccccc21 | inconclusive: 39.8 µM [inhibitor, partial curve]
66 | CCCn1nnnc1NC(=O)c1cccs1 | inconclusive: 56.2 µM [inhibitor, partial curve, poor fit]
67 | Cc1c(C)n(C)c2ccc(C(=O)NCCCN3CCCCC3C)cc12 (stereo not drawn) | inconclusive: 63.1 µM [inhibitor, partial curve, poor fit] and inconclusive: 56.2 µM [inhibitor, partial curve]
68 | CN(C)C(CNC(=O)c1ccc(C2SCCS2)cc1)c1ccccc1 (stereo not drawn) | inconclusive: 50.1 µM [inhibitor, partial curve]
69 | Cc1cccc(N2CCN(C(=O)c3ccccc3SCC(=O)N3CCCC3)CC2)c1C | inactive
70 | Cc1sc2nc(CSCC(=O)Nc3c(F)cccc3F)[nH]c(=O)c2c1C | inactive
71 | CN(Cc1cccnc1)C(=O)CNC(=O)COc1ccccc1 | inactive
72 | CCn1c(NC(=S)Nc2ccccc2)nc2ccccc21 | inconclusive: 50.1 µM [inhibitor, partial curve]
73 | N=c1c2c(-c3ccccc3)c(-c3ccccc3)n(Cc3ccco3)c2ncn1CCCn1ccnc1 | inconclusive: 44.7 µM [inhibitor, partial curve]
